{"source": "paper PMC4336329", "about": "(PLoS ONE, 2015)", "note": "Screen size: about 310,000 compounds; about 2,200 (0.71%) showed an effect of 50% or more. Effects have a minus sign here. Some of the results follow."}
{"molecular_target": "human ether-à-go-go-related gene (hERG) potassium channel (human, UniProt Q12809)", "sequence (Q12809 whole entry, looked up)": "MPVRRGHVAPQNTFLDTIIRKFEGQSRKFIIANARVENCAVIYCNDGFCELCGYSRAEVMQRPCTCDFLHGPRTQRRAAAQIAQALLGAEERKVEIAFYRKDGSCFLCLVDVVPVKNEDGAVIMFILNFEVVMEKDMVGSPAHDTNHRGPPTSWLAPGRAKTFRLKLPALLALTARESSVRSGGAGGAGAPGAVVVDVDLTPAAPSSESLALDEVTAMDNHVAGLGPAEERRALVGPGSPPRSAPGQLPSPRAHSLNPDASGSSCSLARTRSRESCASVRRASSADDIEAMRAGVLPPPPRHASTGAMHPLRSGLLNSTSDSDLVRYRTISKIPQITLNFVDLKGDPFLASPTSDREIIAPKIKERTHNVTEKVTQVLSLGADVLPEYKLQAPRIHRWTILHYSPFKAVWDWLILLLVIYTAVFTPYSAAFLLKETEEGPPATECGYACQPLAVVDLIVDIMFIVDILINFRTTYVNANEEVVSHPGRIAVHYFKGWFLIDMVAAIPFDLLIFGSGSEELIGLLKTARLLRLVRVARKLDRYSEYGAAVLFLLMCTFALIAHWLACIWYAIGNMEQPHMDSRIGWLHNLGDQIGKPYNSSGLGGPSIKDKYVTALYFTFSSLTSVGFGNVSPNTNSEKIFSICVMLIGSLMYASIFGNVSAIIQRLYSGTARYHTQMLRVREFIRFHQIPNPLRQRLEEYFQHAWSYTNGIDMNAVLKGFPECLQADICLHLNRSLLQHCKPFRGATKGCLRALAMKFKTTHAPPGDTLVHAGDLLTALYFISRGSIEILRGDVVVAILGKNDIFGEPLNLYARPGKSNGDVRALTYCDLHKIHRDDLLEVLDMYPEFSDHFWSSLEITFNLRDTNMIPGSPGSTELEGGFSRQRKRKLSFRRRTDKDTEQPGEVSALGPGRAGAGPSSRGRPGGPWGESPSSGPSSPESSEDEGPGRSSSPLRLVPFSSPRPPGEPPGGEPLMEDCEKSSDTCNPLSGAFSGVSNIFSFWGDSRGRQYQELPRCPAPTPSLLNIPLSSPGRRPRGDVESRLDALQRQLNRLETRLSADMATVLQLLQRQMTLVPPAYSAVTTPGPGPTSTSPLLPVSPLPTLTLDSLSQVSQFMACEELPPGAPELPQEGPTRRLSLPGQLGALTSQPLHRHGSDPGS", "test": "primary screen, population patch clamp on CHO cells stably expressing hERG", "units": {"hERG current change (%, negative = inhibition) at 1uM": "%"}}
{"smiles": "O=C(O)C(=O)O.OCc1ccccc1OCCCN1CCC(Cc2ccccc2)CC1", "hERG current change (%, negative = inhibition) at 1uM": -65.9}
{"smiles": "COc1ccc(NC(=O)C(c2ccccn2)N(C(C)=O)c2ccc(C)cc2)cc1", "note": "(centres unmarked)", "hERG current change (%, negative = inhibition) at 1uM": 8.55}
{"smiles": "COc1ccc(-c2[nH]ncc2C=O)cc1OC", "hERG current change (%, negative = inhibition) at 1uM": 2.96}
{"smiles": "O=C(Cn1c(NCCCCl)nc2ccccc21)c1ccccc1.[Cl-]", "hERG current change (%, negative = inhibition) at 1uM": 3.88}
{"smiles": "CCOC(=O)c1nn(-c2ccccc2C)c2nc(Nc3ccccc3)cc(=O)n12", "hERG current change (%, negative = inhibition) at 1uM": -4.38}
{"smiles": "CN(C)/C=C/C(=O)c1ccccc1F", "hERG current change (%, negative = inhibition) at 1uM": 4.57}
{"smiles": "CCCOc1cccc(C(=O)O)c1", "hERG current change (%, negative = inhibition) at 1uM": 7.34}
{"smiles": "CCOc1cccc(C(=O)N2CCCCC2c2cccnc2)c1", "note": "(centres unmarked)", "hERG current change (%, negative = inhibition) at 1uM": -3.21}
{"smiles": "C/C(N)=C(/C#N)C(=O)COC(=O)c1ccc(C#N)cc1", "hERG current change (%, negative = inhibition) at 1uM": 3.74}
{"smiles": "O=C(CCNC(=O)c1ccc(Cl)cc1)NCCC1=CCCCC1", "hERG current change (%, negative = inhibition) at 1uM": 2.47}
{"smiles": "CCCC(C)C1(CC)C(=O)NC(=Nc2ccc(OC)cc2)NC1=O", "note": "(centres unmarked)", "hERG current change (%, negative = inhibition) at 1uM": 3.6}
{"smiles": "Cc1cc(OCC(=O)NC2CCCCC2)ccc1Cl", "hERG current change (%, negative = inhibition) at 1uM": 8.91}
{"smiles": "O=C(NCc1cccnc1)c1cccc(C(F)(F)F)c1", "hERG current change (%, negative = inhibition) at 1uM": 13.5}
{"smiles": "N#C/C(=C/c1ccc2c(c1)OCO2)C(=O)NCCc1c[nH]c2ccccc12", "hERG current change (%, negative = inhibition) at 1uM": 9.7}
{"smiles": "Nc1ccc2nc(-c3cccnc3)[nH]c2c1", "hERG current change (%, negative = inhibition) at 1uM": 7.84}
{"smiles": "COc1nc2ccccc2nc1OC", "hERG current change (%, negative = inhibition) at 1uM": 13.8}
{"smiles": "Cc1ccc(OC(=O)c2ccc(C)c([N+](=O)[O-])c2)cn1", "hERG current change (%, negative = inhibition) at 1uM": 14.3}
{"smiles": "COC(=O)c1ccc(-n2cncn2)c(F)c1", "hERG current change (%, negative = inhibition) at 1uM": 7.77}
{"smiles": "COc1ccccc1NC(=O)CN1CCOCC1", "hERG current change (%, negative = inhibition) at 1uM": 16.3}
{"smiles": "Cc1ccc(CSCC(=O)Nc2ccc3c(c2)OCO3)cc1", "hERG current change (%, negative = inhibition) at 1uM": -2.99}
{"smiles": "CC(=O)c1ccc(-c2ccc(C(=O)N3CCC(C(N)=O)CC3)o2)cc1", "hERG current change (%, negative = inhibition) at 1uM": -4.4}
{"smiles": "CC(=O)c1csc(COc2ccc(Cl)cc2)n1", "hERG current change (%, negative = inhibition) at 1uM": 10.8}
{"smiles": "O=C(O)c1cc(-c2ccncc2)nc2ccc(S(=O)(=O)N3CCOCC3)cc12", "hERG current change (%, negative = inhibition) at 1uM": 3.3}
{"smiles": "O=C(COC(=O)/C=C/c1cccc(C(F)(F)F)c1)NC1CCCCCC1", "hERG current change (%, negative = inhibition) at 1uM": 3.88}
{"smiles": "CCOc1cccc2sc(N(CCN(C)C)C(=O)/C=C/c3cccs3)nc12.Cl", "hERG current change (%, negative = inhibition) at 1uM": 16.2}
{"smiles": "CCOCCn1cnc2sc(C(=O)NCC(=O)OCC)c(C)c2c1=O", "hERG current change (%, negative = inhibition) at 1uM": 0.214}
{"smiles": "C=C(C)c1ccc(C(C)(C)NC(=O)NCc2ccco2)cc1", "hERG current change (%, negative = inhibition) at 1uM": -1.72}
{"smiles": "O=C(CN1CCN(Cc2ccccc2)CC1)N/N=C/C=C/c1ccccc1[N+](=O)[O-]", "hERG current change (%, negative = inhibition) at 1uM": -32.1}
{"smiles": "CCC(C)(C)C1CCc2c(sc(NC(=O)c3cccs3)c2C(N)=O)C1", "note": "(centres unmarked)", "hERG current change (%, negative = inhibition) at 1uM": 12.4}
{"smiles": "CCOC(=O)CN1CC23C=CC(O2)C(C(=O)NC2CCCC2)C3C1=O", "note": "(centres unmarked)", "hERG current change (%, negative = inhibition) at 1uM": 9.85}
{"smiles": "CCOc1ccc(CSC2=NCCN2)cc1Cl.Cl", "hERG current change (%, negative = inhibition) at 1uM": -4.54}
{"smiles": "CC(C)SCC(=O)Nc1ncc2c(n1)-c1ccccc1CC2", "hERG current change (%, negative = inhibition) at 1uM": 11.5}
{"smiles": "COc1ccc(NC(=O)C(F)(F)F)cc1OC", "hERG current change (%, negative = inhibition) at 1uM": 7.02}
{"smiles": "Cc1c(C=O)c2ccccn2c1C(=O)c1ccncc1", "hERG current change (%, negative = inhibition) at 1uM": 6.3}
{"smiles": "O=C(CC1SCCNC1=O)Nc1ccc(Cl)cc1", "note": "(centres unmarked)", "hERG current change (%, negative = inhibition) at 1uM": 7.11}
{"smiles": "COc1ccc(C(=O)Cn2c(=O)oc3ccc(C)cc32)cc1", "hERG current change (%, negative = inhibition) at 1uM": 11.4}
{"smiles": "CCc1ccc(/C=C/C(=O)c2c(C)cc(C)[nH]c2=O)cc1", "hERG current change (%, negative = inhibition) at 1uM": 5.55}
{"smiles": "O=C(CCCCl)NC1=NN(c2ccccc2)C(=O)C1", "hERG current change (%, negative = inhibition) at 1uM": 1.49}
{"smiles": "CC(C)NC(=O)COC(=O)c1cncc(Br)c1", "hERG current change (%, negative = inhibition) at 1uM": 7.87}
{"smiles": "CCN1CCN(c2ccc(S(=O)(=O)N3CCCCC3)cc2NC(=O)c2cccc(C)c2[N+](=O)[O-])CC1", "hERG current change (%, negative = inhibition) at 1uM": 6.56}
{"smiles": "CC(C)NC(=O)CSc1nc(N)c(NC(=O)c2ccccc2F)c(=O)[nH]1", "hERG current change (%, negative = inhibition) at 1uM": 14.9}
{"smiles": "O=C(CN1C(=O)CCSc2ccccc21)Nc1ccc(F)cc1", "hERG current change (%, negative = inhibition) at 1uM": 1.34}
{"smiles": "COc1ccc(C2=CC(c3cc(OC)c(OC)c(OC)c3)NC(=S)N2)cc1", "note": "(centres unmarked)", "hERG current change (%, negative = inhibition) at 1uM": 3.88}
{"smiles": "Cc1sc(NC(=O)C2CCCCC2C(=O)O)c(C(N)=O)c1-c1ccc(C(C)(C)C)cc1", "note": "(centres unmarked)", "hERG current change (%, negative = inhibition) at 1uM": 7.43}
{"smiles": "CCN(CC)CCCNC(=S)N1CCN(c2nc3ccccc3n2CC)CC1", "hERG current change (%, negative = inhibition) at 1uM": 10.5}
{"smiles": "COCc1cc(=O)n2[nH]c(-c3cccs3)cc2n1", "hERG current change (%, negative = inhibition) at 1uM": 10.8}
{"smiles": "Cc1nnsc1C(=O)N/N=C/c1ccccc1", "hERG current change (%, negative = inhibition) at 1uM": 5.76}
{"smiles": "O=C(O)C(=O)O.OC(CNCCc1ccc(Cl)cc1Cl)COc1ccccc1", "note": "(centres unmarked)", "hERG current change (%, negative = inhibition) at 1uM": 6.22}
{"smiles": "Cn1nc(C(=O)NNc2c(F)c(F)cc(F)c2F)c2ccccc2c1=O", "hERG current change (%, negative = inhibition) at 1uM": 10.8}
{"smiles": "CCOc1c2ccc(C(=O)NCCCCc3ccccc3)cc2nn1C", "hERG current change (%, negative = inhibition) at 1uM": -0.119}
{"smiles": "O=C(NCCCN1CCOCC1)C1(c2ccccc2)CCOCC1", "hERG current change (%, negative = inhibition) at 1uM": 19.2}
{"smiles": "CC(=O)c1cccc(-n2nnnc2SCC(=O)NNC(=O)C2CCCCC2)c1", "hERG current change (%, negative = inhibition) at 1uM": 6.9}
{"smiles": "COc1cccc(C2(O)CCN(C(=O)c3cccs3)CC2)c1", "hERG current change (%, negative = inhibition) at 1uM": 5.78}
{"smiles": "Cc1nn(-c2cccc(C(F)(F)F)c2)c(=O)c2noc(C)c12", "hERG current change (%, negative = inhibition) at 1uM": 0.696}
{"smiles": "CC(=O)Nc1ccc(NC(=O)CSc2nnc(C3CC3)n2C)cc1", "hERG current change (%, negative = inhibition) at 1uM": 10.9}
{"smiles": "O=C(Nc1ccccc1Cl)N1CCSc2ccccc21", "hERG current change (%, negative = inhibition) at 1uM": 12.2}
{"smiles": "Cc1cc2ccccc2n1CCNC(=O)COc1ccccc1", "hERG current change (%, negative = inhibition) at 1uM": -3.2}
{"smiles": "CN(CC(=O)Nc1ccc(F)c(F)c1F)C1CCCCC1", "hERG current change (%, negative = inhibition) at 1uM": -2.93}
{"smiles": "CCCn1c(NCc2ccccc2NS(=O)(=O)c2ccc(C)cc2)nc2ccccc21", "hERG current change (%, negative = inhibition) at 1uM": 10.5}
{"smiles": "CCOC(=O)C1CCN(C(=O)Cn2nc(C)c3c(C)n(-c4ccccc4)nc3c2=O)CC1", "hERG current change (%, negative = inhibition) at 1uM": 10.2}
{"smiles": "O=C(CCCCCn1nnc2ccccc2c1=O)Nc1ccccc1Cl", "hERG current change (%, negative = inhibition) at 1uM": 10.7}
{"smiles": "Cc1noc(NS(=O)(=O)c2ccc(N/C=C\\C(=O)c3cccc4ccccc34)cc2)c1C", "hERG current change (%, negative = inhibition) at 1uM": 9.45}
